Here are results for 102 sequences from a collection of fitness landscapes (doi:10.1038/s41467-024-54723-y).

Over roughly 18,000 sequences, “TetR repression strength (sort-seq, GFP reporter)” has its median near 0.23; the highest 2% begin near 0.68. The list shows a part of the results.

This experiment has as its target TetR (class B, Tn10) (UniProt P04483). The experiment is described as follows: TetR repression strength (sort-seq, GFP reporter) (relative to tetO2 = 1); higher = stronger repression. The note with it: E. coli. The method, boiled down: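 Three independent transformations of E. coli SIG10-MAX were made with a low-copy plasmid library randomizing eight operator positions between a constitutive promoter and sfGFP, with constitutive TetR. Following 5 h at 37 °C in LB plus 50 µg/mL chloramphenicol, 10^6 cells went through FACS into 13 fluorescence bins, and each bin was sequenced by Illumina. Repression strength was defined as the top bin index plus one minus the read-weighted mean bin, divided by the unaltered operator's value. Averages included only members reaching ≥30 reads in all replicates with a CV ≤0.5.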
Sequence of UniProt P04483 (P04483 whole entry): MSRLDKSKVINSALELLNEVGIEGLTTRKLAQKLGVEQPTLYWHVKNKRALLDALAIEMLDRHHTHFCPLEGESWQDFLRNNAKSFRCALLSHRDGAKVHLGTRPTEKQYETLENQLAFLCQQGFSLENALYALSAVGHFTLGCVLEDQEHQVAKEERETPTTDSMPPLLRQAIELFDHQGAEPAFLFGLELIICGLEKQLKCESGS
Turning to TCCCGCGGAGTAAAGGAGA, the TetR repression strength was found to be 0.207.
Sequence TCCCATACAGTTGAGGAGA showed a TetR repression strength of 0.0487.
The result for TCCCCAGTAGTCGATGAGA reads 0.222; that for TCCCGGCAAGTTGAGGAGA, 0.0553; that for TCCCCATAAGTCTTGGAGA, 0.242.
Under TCCCAAAGAGTCGCAGAGA stands 0.308.
The result for TCCCTTGGAGTGCTGGAGA reads 0.415; that for TCCCGCACAGTAGGGGAGA, 0.126.
TCCCAGTCAGTGGTGGAGA returned a TetR repression strength of 0.305.
TCCCTGGCAGTGGTGGAGA: the TetR repression strength worked out at 0.121.
TCCCGTACAGTGGCTGAGA came in with a TetR repression strength of 0.446.
On to TCCCTGAGAGTGATTGAGA, for which the TetR repression strength amounted to 0.239.
The result for TCCCCTAAAGTTGATGAGA reads 0.372; that for TCCCGACCAGTCGATGAGA, 0.171; that for TCCCATTCAGTGATAGAGA, 0.707.
In turn, TCCCACACAGTAGGGGAGA had a TetR repression strength of 0.218.
With TCCCTGATAGTTCACGAGA, the TetR repression strength is 0.294.
The result for TCCCTAGTAGTTTATGAGA reads 0.215; that for TCCCTTCTAGTGGCGGAGA, 0.39; that for TCCCACGAAGTACTAGAGA, 0.188.
The result for TCCCCTTCAGTGTTAGAGA reads 0.458; that for TCCCAGGAAGTGTCAGAGA, 0.0945; that for TCCCACGTAGTTAGGGAGA, 0.19.
Under TCCCACATAGTATGTGAGA stands 1.23; under TCCCCTGGAGTCGGTGAGA, 0.364; under TCCCGCATAGTGAAAGAGA, 0.398.
As to TCCCCGAAAGTAAAAGAGA, the TetR repression strength is 0.272.
The result for TCCCGTTGAGTGGCAGAGA reads 0.291; that for TCCCAACCAGTGATTGAGA, 0.47; that for TCCCTTCCAGTAACTGAGA, 0.401.
The sequence TCCCCGCAAGTCCATGAGA had a TetR repression strength of 0.354.
The result for TCCCGGGCAGTACAGGAGA reads 0.192.
The result for TCCCGGCGAGTAAGCGAGA reads 0.263; that for TCCCAGGTAGTTGCTGAGA, 0.167; that for TCCCTAACAGTGAGTGAGA, 0.514.
Under TCCCTAAGAGTTGGGGAGA stands 0.243; under TCCCAACGAGTGCTGGAGA, 0.237.
Sequence TCCCACGGAGTTGTAGAGA came in with a TetR repression strength of 0.148.
For the sequence TCCCCAAAAGTTCGAGAGA, the TetR repression strength is 0.117.
The result for TCCCGATCAGTCTTAGAGA reads 0.455.
Sequence TCCCGGACAGTCAGAGAGA had a TetR repression strength of 0.208.
TCCCTATGAGTGCGTGAGA came in with a TetR repression strength of 0.227.
As to TCCCTGTGAGTTCTTGAGA, the TetR repression strength is 0.121.
As for TCCCCATTAGTAGTCGAGA, the TetR repression strength was 1.01.
TCCCCAATAGTGTTAGAGA had a TetR repression strength of 0.318.
Under TCCCGTAGAGTGGTAGAGA stands 0.332.
The result for TCCCAAATAGTGGGAGAGA reads 0.214.
With TCCCGTCGAGTGAAAGAGA, the TetR repression strength was 0.69.
TCCCGTGAAGTAACGGAGA had a TetR repression strength of 0.112.
The result for TCCCTTCCAGTACTGGAGA reads 0.388; that for TCCCACTAAGTTTTTGAGA, 0.525.
Take TCCCTGTCAGTTCCGGAGA: the TetR repression strength came out at 0.256.
TCCCCAATAGTGGGGGAGA: the TetR repression strength turned out to be 0.223.
In turn, TCCCATGCAGTCCATGAGA gave a TetR repression strength of 0.109.
The result for TCCCGAGTAGTCGAGGAGA reads 0.159; that for TCCCCTGAAGTAGATGAGA, 0.263.
The result for TCCCGGACAGTCATCGAGA reads 0.216; that for TCCCCTAAAGTGTGGGAGA, 0.113; that for TCCCGATTAGTCGTGGAGA, 0.415.
As for TCCCGGACAGTCCAAGAGA, the TetR repression strength came to 0.377.
Under TCCCTATCAGTAGGCGAGA stands 0.414.
The result for TCCCTAATAGTTGCTGAGA reads 0.214; that for TCCCGAAAAGTGCAGGAGA, 0.26; that for TCCCTAATAGTGATAGAGA, 0.614.
In turn, TCCCGATTAGTTAGCGAGA returned a TetR repression strength of 0.0992.
The sequence TCCCATGCAGTGCAGGAGA returned a TetR repression strength of 0.229.
The result for TCCCGCGAAGTCCCTGAGA reads 0.437.
Under TCCCTCCAAGTGCGTGAGA stands 0.0321; under TCCCGTCAAGTTGATGAGA, 0.0499; under TCCCCGTTAGTTTCAGAGA, 0.2.
Under TCCCAAGGAGTTTTAGAGA stands 0.318.
Sequence TCCCTAGTAGTGTTGGAGA displayed a TetR repression strength of 0.407.
Under TCCCGAGGAGTGACGGAGA stands 0.319; under TCCCGCGAAGTCCTCGAGA, 0.245; under TCCCCTGGAGTTTGAGAGA, 0.138.
The result for TCCCGGCAAGTGAGCGAGA reads 0.118.
Sequence TCCCTGTGAGTTGGTGAGA gave a TetR repression strength of 0.656.
Under TCCCGTACAGTCCACGAGA stands 0.3; under TCCCCAGGAGTCGTTGAGA, 0.279; under TCCCGGGTAGTGGAAGAGA, 0.331.
Under TCCCCTGAAGTTTACGAGA stands 0.2; under TCCCTCGGAGTCTGCGAGA, 0.522; under TCCCAGTTAGTCTAAGAGA, 0.174.
The result for TCCCTAGGAGTATGCGAGA reads 0.202.
TCCCCGAGAGTGCGAGAGA yielded a TetR repression strength of 0.162.
For the sequence TCCCGGGGAGTGGGAGAGA, the TetR repression strength was found to be 0.192.
Under TCCCTTCTAGTTGGTGAGA stands 0.346; under TCCCTGTTAGTGCCGGAGA, 0.127; under TCCCAATCAGTAATAGAGA, 0.529.
Under TCCCGGAAAGTGCTGGAGA stands 0.231.
The result for TCCCCGGCAGTTCTGGAGA reads 0.276; that for TCCCGGCGAGTATTAGAGA, 0.31.
Sequence TCCCAGTTAGTTGCCGAGA returned a TetR repression strength of 0.0275.
Under TCCCCTTAAGTTGTCGAGA stands 0.517; under TCCCTTTAAGTGCAAGAGA, 0.325; under TCCCGCTGAGTGCGTGAGA, 0.372.
As for TCCCCTTTAGTAGTGGAGA, the TetR repression strength came out at 0.282.
Regarding TCCCCACCAGTTACGGAGA, the TetR repression strength was found to be 0.0904.
The result for TCCCTGGGAGTACCAGAGA reads 0.524; that for TCCCGCTGAGTCGGGGAGA, 0.364; that for TCCCATTGAGTGGAAGAGA, 0.184.
In turn, TCCCTTACAGTAGGAGAGA gave a TetR repression strength of 0.274.
